Measurements from PubChem BioAssay AID624417 (National Center for Advancing Translational Sciences (NCATS), 2012).
About 6,400 (1.6%) of roughly 410,000 compounds were called active. Inconclusive means that the source gave no clear call. Such entries were picked first, then a sample of the others. The call rests on the fitted dose curve; in most records, active means well fitted inhibition curve with a large enough effect; inconclusive means small, poorly fitted or top-dose-only effect; inactive means no such curve, though single readings can be large or run the other way. Potencies of inconclusive entries are left out as doubtful fits.

These molecules were tested against Glucagon-like peptide 1 receptor (Homo sapiens) (UniProt P43220) (assay: qHTS of GLP-1 Receptor Inverse Agonists (Inhibition Mode)). Details: HEK293 GLP-1R CRE-luciferase, luminescence, 24 h, GLP-1R form is constitutively active; series mostly up to 38.3 µM.
Summary of the method: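 Inverse agonists were sought by their lowering of basal cAMP reporter luciferase output in HEK293 cells stably carrying constitutively active human GLP-1R, after 24 h compound treatment.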
Further: nearly all actives have a fitted effect of over 55% in size.
Potency means the concentration at half of the fitted maximal effect; tags describe the fitted curve by direction and shape.

Sequence of UniProt P43220 (P43220 whole entry, looked up): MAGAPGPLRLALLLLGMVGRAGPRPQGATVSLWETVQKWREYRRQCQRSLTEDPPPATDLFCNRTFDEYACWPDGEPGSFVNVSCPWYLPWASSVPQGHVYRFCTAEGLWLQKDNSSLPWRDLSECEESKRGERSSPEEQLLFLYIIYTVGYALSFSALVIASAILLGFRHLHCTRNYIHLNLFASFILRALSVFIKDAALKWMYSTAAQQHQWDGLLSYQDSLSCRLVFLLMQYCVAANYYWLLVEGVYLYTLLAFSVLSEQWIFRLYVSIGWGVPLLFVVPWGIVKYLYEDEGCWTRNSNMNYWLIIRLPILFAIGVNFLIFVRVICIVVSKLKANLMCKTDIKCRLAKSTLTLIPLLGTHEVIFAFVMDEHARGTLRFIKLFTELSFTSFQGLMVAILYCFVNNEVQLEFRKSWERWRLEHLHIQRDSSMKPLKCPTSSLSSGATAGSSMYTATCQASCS

SMILES | Potency
Cc1cc(C)c(OCCCCN2CCNCC2)c(C)c1 | inconclusive [inhibitor, partial curve]
CN1/C(=C\C(=O)Nc2cccc(Cl)c2)C(C)(C)c2ccccc21 | active: 5.01 µM
Cc1cc(NS(=O)(=O)c2ccc(NC(=O)COc3c(C)ccc(C)c3C)cc2)nc(C)n1 | inactive
CCOc1ccc(-n2c(=O)c3c(C)c(C)sc3n(CC(=O)C(C)(C)C)c2=O)cc1 | inactive
CCN(CC)CC(=O)N1CCCC(N2CCN(c3cccc(C(F)(F)F)c3)CC2)C1 (configuration not stated) | inconclusive [inhibitor, partial curve, poor fit]
O=C(NCc1ccc(Cl)cc1)c1ccc(CSc2nc3ccncc3[nH]2)cc1 | inconclusive [inhibitor, partial curve, poor fit]
O=c1cc(COc2ccc(Cl)cc2Cl)nc2scc(-c3ccccc3)n12 | inactive
CC(CNC(=O)c1ccc2c(c1)nc1n2CCCCC1)c1ccccc1 (configuration not stated) | inconclusive [inhibitor, full curve, poor fit]
COc1ccccc1OCC(=O)N(Cc1ccco1)Cc1ccccc1F | inconclusive [inhibitor, single point]
O=C(NCc1ccccc1Cl)c1ccc2nnsc2c1 | inconclusive [inhibitor, single point]
CCOC(=O)c1ccc(N=C2SC(C(=O)NC)CC(=O)N2CCc2ccccc2)cc1 (configuration not stated) | inconclusive [inhibitor, partial curve, poor fit]
CC(C)(C)c1ccc(C(=O)NCCCN2CCN(CCCNC(=O)c3ccc(C(C)(C)C)cc3)CC2)cc1 | inconclusive [inhibitor, single point]
CC1c2cc3c(cc2CCN1C(=O)c1ccc(Cl)cc1)OCCCO3 (configuration not stated) | inconclusive [inhibitor, full curve]
Oc1ccc(-c2cc(-c3ccc(O)cc3)nc(-c3ccccc3)n2)cc1 | inconclusive [inhibitor, full curve, poor fit]
O=C(CCC(=O)N1CCSc2ccccc21)Nc1ccc(Cl)cc1 | inconclusive [inhibitor, partial curve, poor fit]
CCC(CC)c1nn2c(=O)cc(COc3ccc(NC(=O)c4cccc(C)c4)cc3)nc2s1 | inactive
CCOC(=O)[C@]12CCCC=C1N(Cc1cccc3ccccc13)C(=O)[C@H](CC(=O)N1CCN(C(=O)c3ccco3)CC1)C2 | inconclusive [inhibitor, single point]
CCOc1ccc2nc(NCCNC(=O)Nc3cccc(C)c3)c(C#N)cc2c1 | inconclusive [inhibitor, full curve, poor fit]
CCN(CC)Cc1cc(Oc2ccc(O)c(CN(CC)CC)c2)ccc1O | inactive
COc1cccc(CNC(=O)c2cc(-c3ccc(Cl)cc3)n[nH]2)c1 | inactive
COc1cc(/C=C/C(=O)c2ccc3c(c2)OCO3)cc(OC)c1OC | inconclusive [inhibitor, partial curve, poor fit]

SMILES | Potency
Cc1ccc(SCCNC(=O)c2ccccc2C)cc1 | inconclusive [inhibitor, single point]
CC1CCCN1CC#CC(O)(c1ccccc1)c1ccccc1 (configuration not stated) | inconclusive [inhibitor, partial curve, poor fit]
Cc1ccc(S(=O)(=O)N2CC=C(c3c(C)n(CC(=O)N4CCCC4)c4ccccc34)CC2)cc1C | inconclusive [inhibitor, single point]
CC1(C)C(C=C(Cl)Cl)C1C(=O)N1CCN(Cc2ccccc2)CC1 (configuration not stated) | inconclusive [inhibitor, partial curve, poor fit]
CCc1ccc(NC(=O)C(=O)N/N=C(\C)CC(=O)NCc2ccc(Cl)cc2)cc1 | inconclusive [inhibitor, partial curve, poor fit]
COc1ccc(-c2c(C(F)(F)F)nn(C)c2NC(=O)c2ccco2)cc1 | inconclusive [inhibitor, single point]
O=C(Nc1nc2c(s1)CCCC2)c1cc(-c2ccncc2)nc2ccccc12 | inactive
Cc1ccc(OCCSc2nc3ccc(NC(=O)c4cccs4)cc3s2)cc1 | inactive
Cc1c(C)c2ccc(OCC(=O)N[C@@H](Cc3c[nH]c4ccccc34)C(=O)O)cc2oc1=O | inactive
CN(C)S(=O)(=O)N(CC(=O)Nc1ccc(C(F)(F)F)cc1)c1ccccc1 | inconclusive [inhibitor, single point]
C=C(C)CCC(C)N1CCC(n2nccc2NC(=O)CCCc2ccccc2)CC1 (configuration not stated) | inconclusive [inhibitor, partial curve, poor fit]
CCOC(=O)c1c(C)[nH]c(CCC(=O)Nc2cc(Cl)ccc2OC)c1C | inconclusive [inhibitor, single point]
Cc1c(C(=O)NCc2ccc3c(c2)OCO3)oc2ccc(S(=O)(=O)N3CCCCC3)cc12 | inconclusive [inhibitor, partial curve]
COc1ccc(OC)c(/C=C/C(=O)c2ccc3c(c2)OCO3)c1 | inconclusive [inhibitor, single point]
Cc1ccc(NC2(C(F)(F)F)N=C(c3ccccc3)NC2=O)nc1 (configuration not stated) | inconclusive [inhibitor, partial curve, poor fit]
O=C(CCC(=O)N1CCN(c2ccccc2F)CC1)c1ccc(Cl)s1 | inconclusive [inhibitor, partial curve, poor fit]
Cc1onc(-c2c(F)cccc2Cl)c1C(=O)NCC1COc2ccccc2O1 (configuration not stated) | inconclusive [inhibitor, single point]
CCOC(=O)c1c(C)oc2ccc(N(C(=O)c3ccncc3)S(=O)(=O)c3ccc(CC)cc3)cc12 | inconclusive [inhibitor, partial curve, poor fit]
CCCc1c(C(=O)NNc2ccc(C)cc2)cnn1-c1ccccc1 | inconclusive [inhibitor, full curve, poor fit]
CCCCCCCCN1C(=O)[C@H](CC(=O)NCc2ccc(C)o2)C[C@@]2(C(=O)OC)CCCCC=C12 | inconclusive [inhibitor, single point]
CC(C)C(=O)N1CCC2(CC1)Oc1ccc(F)cc1C(=O)C21CC(c2ccc(Cl)cc2)=NO1 (configuration not stated) | inconclusive [inhibitor, single point]

SMILES | Potency
O=C(COc1ccc(-c2ccccc2)cc1)N/N=C/c1cc(O)ccc1Br | inconclusive [inhibitor, single point]
O=C(CN1C(=O)COc2ccc(S(=O)(=O)NC3CCCC3)cc21)Nc1ccc(Cl)cc1F | inconclusive [inhibitor, single point]
C#CCOc1c(Br)cc(/C=N/O)cc1OCC | inconclusive [inhibitor, single point]
COc1ccc(-n2nc(C(=O)NCC(=O)NCCC3=CCCCC3)c3ccccc3c2=O)cc1 | inconclusive [inhibitor, single point]
Cc1cc(N2CCOCC2)nc2ccc(NC(=O)CCC(=O)N3CCN(c4ccccc4)CC3)cc12 | inactive
Cc1nn(-c2ccccc2)c(C)c1Cc1ccc(O)cc1 | inconclusive [inhibitor, single point]
CCOC(=O)CC1ON(C)C(=O)N1c1ccc(Cl)cc1Cl (configuration not stated) | inconclusive [inhibitor, single point]
COc1ccccc1-c1ncn(Cc2cccc(-c3ccccc3)c2)c1-c1ccco1 | inconclusive [inhibitor, single point]
O=C(CN(c1ccccc1F)S(=O)(=O)c1ccccc1)N1CCCCCC1 | inconclusive [inhibitor, full curve]
CCOc1ccc(NC(=O)C2(c3cccs3)CCOCC2)cc1 | inactive
[2H]c1c([2H])c([2H])c(-c2nc(N3CCCCCC3)sc2C(=O)c2ccccc2)c([2H])c1[2H] | active: 2 µM
Cc1ccc(NC(=O)CSc2nc(=O)n(CCN(C)C)c3c2CCCC3)cc1Cl | inconclusive [inhibitor, partial curve, poor fit]
Cc1ccc(CSc2nnc(SCC(=O)N/N=C/c3c(C)nn(-c4ccccc4)c3C)s2)cc1 | inconclusive [inhibitor, single point]
Cc1cc(O)c(C(C)C)cc1N=Cc1ccc(N(C)C)cc1 | inconclusive [inhibitor, single point]
NC(CSC1(c2ccccc2)c2ccccc2-c2ccccc21)C(=O)O (configuration not stated) | inconclusive [inhibitor, partial curve]
O=C(Nc1ccccc1Cl)c1cccc(NC(=O)C2CCCC2)c1 | inconclusive [inhibitor, single point]
COc1cc(OC)cc(-c2sc3ccc(OC)cc3c2C#CC(C)(C)O)c1 | inconclusive [inhibitor, partial curve]
N#Cc1nc(COc2ccccc2)oc1N1CCN(Cc2ccccc2)CC1 | inconclusive [inhibitor, single point]
CCOC(=O)C1CCN(C(=O)C(C)Oc2ccc(C(=O)c3ccccc3)cc2)CC1 (configuration not stated) | inconclusive [inhibitor, single point]
CCOc1ccc(S(=O)(=O)N(CC(=O)NCc2cccnc2)c2ccc(F)cc2)cc1 | inconclusive [inhibitor, partial curve, poor fit]
